Reference: PubChem BioAssay (Tox21)
The shares of active, inactive and inconclusive entries below differ from those in the screen. Entries that show only a call come without a potency. For some assays here: A potency beside an inconclusive call is a rough fit, not a confirmed value. Active and inactive are the calls of the source. Unless noted, calls come from the whole dose curve; as a rule, active = well fitted curve in the direction sought with a large enough effect in the repeat runs; inconclusive = weak or mixed curves; inactive = no such curve, though single readings can be large; an effect the other way counts as inactive or inconclusive.

Key:
[1] = qHTS assay to identify small molecule agonists of the hypoxia (HIF-1) signaling pathway - cell viability counter screen (AID 1224844; calls by dose curve; note: nearly all actives have a fitted effect of over 50% in size)
Summary of the method: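 Viability counter screen: HRE-bla ME-180 cells plated 5 hrs before compound addition, treated 17 hrs at 37C and 5% CO2, then CellTiter-Glo added after the FRET reporter read; luminescence after 30 min.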

[2] = target: Androgen receptor (Homo sapiens) (UniProt P10275); experiment: qHTS assay to identify small molecule agonists of the androgen receptor (AR) signaling pathway (AID 743036; active = well fitted activation curve with a large enough effect in the signal ratio in the repeat runs, with a control signal flat, not every such curve was filed as active; inconclusive = weak or mixed curves, or effect the other way; inactive = no such curve, though single readings can be large or run the other way; the % refers to the signal ratio); details: HEK293 AR-UAS-bla GripTite, beta-lactamase FRET ratio, 16 h; activation: at 62.4 µM (top of the series) unless noted
UniProt P10275, sequence (P10275 whole entry, looked up): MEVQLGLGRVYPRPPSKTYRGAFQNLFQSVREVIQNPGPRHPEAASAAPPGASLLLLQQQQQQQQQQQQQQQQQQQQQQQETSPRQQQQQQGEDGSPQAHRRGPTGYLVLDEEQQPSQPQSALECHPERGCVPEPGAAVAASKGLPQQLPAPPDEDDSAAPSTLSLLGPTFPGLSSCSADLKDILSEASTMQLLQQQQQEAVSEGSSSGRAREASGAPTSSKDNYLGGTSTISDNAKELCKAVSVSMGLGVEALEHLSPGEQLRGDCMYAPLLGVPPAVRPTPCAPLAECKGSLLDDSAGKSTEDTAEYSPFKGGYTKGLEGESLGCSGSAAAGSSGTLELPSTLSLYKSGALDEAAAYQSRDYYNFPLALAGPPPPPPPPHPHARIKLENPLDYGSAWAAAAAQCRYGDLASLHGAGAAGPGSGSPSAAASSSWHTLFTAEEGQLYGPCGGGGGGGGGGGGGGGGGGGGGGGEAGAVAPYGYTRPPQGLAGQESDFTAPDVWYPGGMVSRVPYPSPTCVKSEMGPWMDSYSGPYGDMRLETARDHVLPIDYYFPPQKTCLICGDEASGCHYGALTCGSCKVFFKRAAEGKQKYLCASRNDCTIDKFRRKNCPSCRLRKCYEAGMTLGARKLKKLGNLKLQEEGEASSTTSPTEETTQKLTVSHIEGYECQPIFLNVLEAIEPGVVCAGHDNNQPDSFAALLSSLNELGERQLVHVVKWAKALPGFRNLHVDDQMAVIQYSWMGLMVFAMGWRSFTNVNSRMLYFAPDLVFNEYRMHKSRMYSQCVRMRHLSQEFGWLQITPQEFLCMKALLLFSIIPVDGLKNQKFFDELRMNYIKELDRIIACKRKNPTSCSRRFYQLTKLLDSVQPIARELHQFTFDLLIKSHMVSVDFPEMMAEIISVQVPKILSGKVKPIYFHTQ
Summary of the method: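 Reporter line: GeneBLAzer AR-UAS-bla-GripTite (HEK293). Steps: plate cells, 4 h rest, add compounds, 16 h at 37C, add LiveBLAzer B/G substrate, 2 h at RT, read fluorescence.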

[3] = target: Peroxisome proliferator-activated receptor delta (Homo sapiens) (UniProt Q03181); experiment: qHTS assay to identify small molecule agonists of the peroxisome proliferator-activated receptor delta (PPARd) signaling pathway (AID 743212; calls by dose curve;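 note: HEK293H cells with PPARd UAS beta-lactamase reporter GeneBLAzer system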); details: HEK293H PPARd-UAS-bla, beta-lactamase FRET ratio, 17 h; activation: at 62.6 µM (top of the series) unless noted
UniProt Q03181, sequence (Q03181 whole entry, looked up): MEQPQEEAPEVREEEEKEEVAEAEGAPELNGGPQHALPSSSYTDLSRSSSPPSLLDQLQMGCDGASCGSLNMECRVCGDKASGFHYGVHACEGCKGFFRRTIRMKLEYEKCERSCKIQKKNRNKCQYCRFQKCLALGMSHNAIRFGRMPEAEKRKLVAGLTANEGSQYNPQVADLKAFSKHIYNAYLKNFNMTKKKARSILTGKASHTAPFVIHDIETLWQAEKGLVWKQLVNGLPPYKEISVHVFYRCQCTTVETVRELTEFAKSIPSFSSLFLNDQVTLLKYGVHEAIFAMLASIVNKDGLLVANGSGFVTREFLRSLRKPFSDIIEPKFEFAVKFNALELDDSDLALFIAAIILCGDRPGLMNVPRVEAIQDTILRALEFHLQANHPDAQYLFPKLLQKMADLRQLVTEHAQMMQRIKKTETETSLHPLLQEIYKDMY
Summary of the method: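 Beta-lactamase reporter read by fluorescence (LiveBLAzer B/G FRET, 2 h, room temperature). Test agents, in DMSO, incubated at 37 C with PPARd-bla HEK293H cells.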

[4] = target: Aryl hydrocarbon receptor (Homo sapiens) (UniProt P35869); experiment: qHTS assay to identify small molecule that activate the aryl hydrocarbon receptor (AhR) signaling pathway (AID 743085); note: potency is the fitted concentration of half-maximal effect; nearly all actives have a fitted effect of over 15% in size
UniProt P35869, sequence (P35869 whole entry, looked up): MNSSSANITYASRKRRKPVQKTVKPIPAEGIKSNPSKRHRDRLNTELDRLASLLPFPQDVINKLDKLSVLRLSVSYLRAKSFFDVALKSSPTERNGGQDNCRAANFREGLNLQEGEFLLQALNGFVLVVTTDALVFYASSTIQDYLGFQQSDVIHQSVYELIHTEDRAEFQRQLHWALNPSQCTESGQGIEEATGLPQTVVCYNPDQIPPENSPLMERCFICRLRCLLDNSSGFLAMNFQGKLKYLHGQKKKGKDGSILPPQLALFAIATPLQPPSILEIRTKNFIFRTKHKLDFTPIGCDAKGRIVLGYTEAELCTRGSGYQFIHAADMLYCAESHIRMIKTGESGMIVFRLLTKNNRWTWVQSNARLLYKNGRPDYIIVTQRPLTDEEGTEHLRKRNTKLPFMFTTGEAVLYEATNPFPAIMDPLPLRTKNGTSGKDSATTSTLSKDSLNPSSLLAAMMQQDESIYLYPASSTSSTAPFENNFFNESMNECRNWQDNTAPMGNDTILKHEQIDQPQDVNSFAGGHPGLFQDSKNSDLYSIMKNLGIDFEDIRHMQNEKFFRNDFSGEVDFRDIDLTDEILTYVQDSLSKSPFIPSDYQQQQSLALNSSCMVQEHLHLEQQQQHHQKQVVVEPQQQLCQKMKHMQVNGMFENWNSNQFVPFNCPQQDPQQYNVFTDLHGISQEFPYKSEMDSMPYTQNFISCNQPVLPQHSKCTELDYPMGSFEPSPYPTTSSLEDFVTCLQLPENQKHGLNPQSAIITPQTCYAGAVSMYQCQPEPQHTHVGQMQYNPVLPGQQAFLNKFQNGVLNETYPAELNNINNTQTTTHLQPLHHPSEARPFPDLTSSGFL
Summary of the method: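 Steps: seed HepG2-AhR-luc cells; allow 5 h at 37C; pin-transfer test compound or vehicle; incubate 24 h at 37C; add viability dye (30 min, 37C) and read fluorescence; add luciferase substrate (30 min, RT) and read luminescence.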

[5] = qHTS RealTime-Glo MT Cell Viability Assay in HEK293 cells - 0 hour (AID 1224880); note: top concentration of the series differs between compounds; nearly all actives have a fitted effect of over 45% in size
Summary of the method: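 600 HEK293 cells per well, dispensed already mixed with RealTime-Glo MT reagents. Compound dosing came 5 h later. The same wells were read for luminescence at 0, 8, 16, 24, 32 and 40 h of exposure at 37 C.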

[6] = target: Androgen receptor (Homo sapiens) (UniProt P10275); experiment: qHTS assay to identify small molecule antagonists of the androgen receptor (AR) signaling pathway (AID 743035; active = well fitted inhibition curve with a large enough effect in the signal ratio in the repeat runs, not every such curve was filed as active; inconclusive = weak or mixed curves, or effect the other way; inactive = no such curve, though single readings can be large or run the other way; the % refers to the signal ratio); details: HEK293 AR-UAS-bla, R1881-stimulated, beta-lactamase FRET, 16 h; activity change, negative = inhibition: at 58.5 µM (top of the series) unless noted
Summary of the method: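 Quantitative HTS of the Tox21 10K library used HEK293 AR-UAS-bla cells stimulated with R1881 alongside compound for 16 h at 37C, followed by beta-lactamase FRET detection (LiveBLAzer B/G, 2 h, RT).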

[7] = qHTS assay for small molecules that induce genotoxicity in human embryonic kidney cells expressing luciferase-tagged ATAD5 - cell viability (AID 651634; calls by dose curve; note: nearly all actives have a fitted effect of over 25% in size; note: potency is the fitted concentration of half-maximal effect)
Summary of the method: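 After 15.5 hr incubation with compound at 37C, 5% CO2, HEK293T ATAD5-luciferase cells received CellTiter-Fluor reagent; fluorescence intensity was quantified following 30 min at 37C.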

[8] = qHTS assay to identify small molecule antagonists of the estrogen receptor alpha (ER-alpha) signaling pathway using the BG1 cell line in the presence of 0.1 nM 17-beta-estradiol - cell viability counter screen (AID 1259241); note: nearly all actives have a fitted effect of over 40% in size
Summary of the method: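 The cell line endogenously expresses full-length ER-alpha and carries four EREs driving luciferase. Cells are cultured 5 days hormone-free, treated 22 hr with compounds and 0.1 nM estradiol, then viability is read by fluorescence.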

[9] = qHTS assay to identify small molecule agonists of the TGF-beta/Smad signaling pathway - cell viability counter screen (AID 1346829); note: top concentration of the series differs between compounds; nearly all actives have a fitted effect of over 45% in size
Summary of the method: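 Here the cytotoxicity of library compounds is measured in SBE-bla HEK 293T cells treated for 5 hr, using CellTiter-Glo added to wells already read for the beta-lactamase reporter.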

[10] = qHTS assay for small molecule agonists of the p53 signaling pathway - cell viability (AID 651633; calls by dose curve; note: nearly all actives have a fitted effect of over 30% in size; note: potency is the fitted concentration of half-maximal effect;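 for activity change, negative = cytotoxicity: p53RE-bla HCT reporter cells with a stable beta-lactamase p53 reporter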)
Summary of the method: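 p53RE-bla cells, seeded at 4,000 per well and rested 5 h at 37 C/5% CO2, received compounds in DMSO for 16 h at 37 C. CellTiter-Glo was then added, and luminescence was read after 30 min at room temperature to gauge cytotoxicity.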

[11] = qHTS assay to identify small molecule agonists of the estrogen receptor alpha (ER-alpha) signaling pathway in the presence of an antagonist - cell viability counter screen (AID 1259386);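 note: cells exposed to compounds for 22 h at 37 °C before the viability read; nearly all actives have a fitted effect of over 30% in size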; note: potency is the fitted concentration of half-maximal effect
Summary of the method: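 In this counter screen, compound effects on VM7Luc4E2 viability were tested in the presence of the antagonist ICI-182,780 at 10.0nM final. Compounds were dosed at 15 concentrations, exposure lasted 22hr, and the CellTiter-Fluor signal was read.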

[12] = qHTS assay to identify aromatase inhibitors - cell viability counter screen (AID 743084); details: MCF-7 aro ERE viability, CellTiter-Fluor, 24 h; activity change, negative = cytotoxicity: at 70.3 µM (top of the series) unless noted;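 note: cells stimulated with testosterone during compound exposure; nearly all actives have a fitted effect of over 55% in size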; note: potency is the fitted concentration of half-maximal effect
[13] = qHTS assay to identify small molecule agonists of the peroxisome proliferator-activated receptor delta (PPARd) signaling pathway - cell viability counter screen (AID 743211); details: PPARd-bla HEK293H viability, CellTiter-Glo luminescence, 17 h; activity change, negative = cytotoxicity: at 62.6 µM (top of the series) unless noted; note: nearly all actives have a fitted effect of over 55% in size
Summary of the method: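 Viability of GeneBLAzer PPARd UAS-bla HEK293H cells was assessed after 17 h compound incubation at 37C, using CellTiter-Glo reagent added after the reporter read and luminescence recorded 30 min later.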

[14] = qHTS RealTime-Glo MT Cell Viability Assay in HepG2 cells - 8 hour (AID 1224873); note: nearly all actives have a fitted effect of over 55% in size; note: potency is the fitted concentration of half-maximal effect
Summary of the method: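 HepG2 cells mixed with RealTime-Glo MT reagents (NanoLuc plus cell-permeant prosubstrate) were seeded at 600 cells/well, incubated 5 h at 37 C/5% CO2, then pinned with compounds in DMSO; nonlytic luminescence tracked viability during 40 h treatment.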

[15] = qHTS assay to identify small molecule agonists of the sonic hedgehog signaling (Shh) pathway - cell viability counter screen (AID 1259366); note: nearly all actives have a fitted effect of over 50% in size; note: potency is the fitted concentration of half-maximal effect
Summary of the method: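 Viability measured fluorometrically (CellTiter-Fluor, 1hr, 37C) in 3T3 Gli1-Luc reporter cells after 23hr compound exposure within a 24hr incubation at 37C/5% CO2.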

[16] = qHTS assay to identify small molecule antagonists of the androgen receptor (AR) signaling pathway using the MDA cell line in the presence of 0.5 nM R1881 - cell viability counter screen (AID 1259242); note: nearly all actives have a fitted effect of over 45% in size
Summary of the method: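 qHTS format. MDA-kb2 (MMTV-luc, AR/GR responsive) + cpd + 0.5 nM R1881 final, 16 hr 37C/0% CO2 → CellTiter-Fluor 30 min → fluorescence intensity.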

[17] = Caspase-3/7 induction in HepG2 cells by small molecules, qHTS assay (AID 1346978); note: nearly all actives have a fitted effect of over 15% in size
Summary of the method: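 Wild-type HepG2 cells (2,000/well) were settled 5 h at 37 C, 5% CO2, then exposed to compounds in DMSO for 17 h. Caspase-3/7 activity was read by luminescence 30 min after adding Caspase-Glo 3/7 reagent at room temperature.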

[18] = qHTS RealTime-Glo MT Cell Viability Assay in HepG2 cells - 32 hour (AID 1224877); note: potency is the fitted concentration of half-maximal effect; nearly all actives have a fitted effect of over 55% in size
Summary of the method: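 Real-time, nonlytic viability: 600 HepG2 cells/well mixed with NanoLuc enzyme plus prosubstrate; 5 h settle, compound (DMSO) added by pintool; luminescence monitored over 40 h at 37 C.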

[19] = A CellTox Green Cytotoxicity Assay to monitor cytotoxicity in HEK293 cells - 24 hour (AID 1224875); note: potency is the fitted concentration of half-maximal effect; nearly all actives have a fitted effect of over 45% in size
Summary of the method: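 Dead-cell fluorescence measured kinetically: asymmetric cyanine dye, HEK293, 600 cells/well, 5 h settle, 23 nL cpd/DMSO, 37 C, reads 0–40 h every 8 h.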
Tags give direction and shape of the fitted curve.

Structure (SMILES): O=C1c2ccccc2S(=O)(=O)N1CCCCN1CCN(c2ncccn2)CC1
- Potency [1]: inactive

Structure (SMILES): N[C@@H](CSCCCO)C(=O)O
- Potency [2]: inactive
- activation [3]: inconclusive: 0.86% [at 29.1 µM]
- activity change, negative = cytotoxicity [1]: inactive: 0.058% [at 15.8 µM]

Structure (SMILES): Cc1ccc(S(=O)(=O)O)c(C)c1
- Potency [4]: inconclusive: 27.3 µM [activator, partial curve, poor fit]
- Potency [1]: inactive

Structure (SMILES): CNC(=S)N(C)C
- Potency [1]: inactive

Structure (SMILES): CCCc1ccc(O)cc1
- Potency [5]: inactive

Structure (SMILES): Cc1cc(C)cc([N+](=O)[O-])c1
- Potency [1]: inactive

Structure (SMILES): COc1ccc(C(C)=O)cc1
- Potency [2]: inactive

Structure (SMILES): CC(=O)c1cc(C)oc1C
- Potency [6]: inactive

Structure (SMILES): C=CC(=O)OCC1CCCO1 (centres undefined)
- Potency [7]: inactive
- Potency [8]: inactive
- Potency [9]: inactive

Structure (SMILES): CCC(CO)(CO)COCC(CC)(CO)CO
- Potency [10]: inactive

Structure (SMILES): COc1cccc(OC)c1
- Potency [11]: inactive

Structure (SMILES): Cc1ccccc1N1CCN(CCc2nnc3n2CCCC3)CC1
- Potency [12]: inactive
- Potency [13]: inactive

Structure (SMILES): CCCC(=O)C(CC)Sc1ccoc1C (centres undefined)
- Potency [14]: inconclusive: 21.9 µM [falling, single point]

Structure (SMILES): BrC/C=C/CBr
- viability change, negative = cytotoxic [15]: inactive: 0.645% [at 19 µM]

Structure (SMILES): CCCCCCCC[Si](OCC)(OCC)OCC
- Potency [10]: inconclusive: 43.3 µM [cytotoxic, partial curve, poor fit]
- Potency [7]: inconclusive: 68.6 µM [falling, single point]

Structure (SMILES): CCCCC(O)/C=C(C)/C=C/C=C/C(=O)N1CCCC1=O (centres undefined)
- Potency [3]: inactive
- Potency [14]: inactive

Structure (SMILES): CCc1ccccc1CC
- Potency [16]: inactive

Structure (SMILES): N[C@H](C(=O)O)[C@@H](O)c1ccc(O)c(O)c1
- Potency [17]: inactive

Structure (SMILES): Cc1c(N)cccc1Cl
- Potency [4]: inconclusive: 30.6 µM [activator, partial curve, poor fit]

Structure (SMILES): CS(=O)(=O)c1ccc([C@@H](CC2CCCC2)C(=O)Nc2cnccn2)cc1Cl
- Potency [12]: inconclusive: 34.4 µM [cytotoxic, partial curve]
- Potency [14]: inconclusive: 38.9 µM [falling, partial curve]
- Potency [18]: inconclusive: 49 µM [cytotoxic, partial curve, poor fit]
- Potency [15]: active: 21.7 µM
- Potency [11]: inconclusive: 43.3 µM [cytotoxic, partial curve]

Structure (SMILES): Cc1ccccc1OCC(O)CO (centres undefined)
- Potency [11]: inactive

Structure (SMILES): CC(C)(C)OC=O
- Potency [7]: inactive

Structure (SMILES): O=[N+]([O-])c1ccccc1C(F)(F)F
- Potency [2]: inactive
- Potency [16]: inactive

Structure (SMILES): CCN(CC)C(=O)C1CN2CCc3cc(OC)c(OC)cc3C2CC1OC(C)=O (centres undefined)
- Potency [13]: inactive
- Potency [8]: inactive

Structure (SMILES): C=C(C)C(=O)OCCCCCCCC(C)C
- Potency [15]: inconclusive: 0.436 µM [cytotoxic, full curve, poor fit]

Structure (SMILES): COc1nc(N)nc2c1ncn2[C@@H]1O[C@H](CO)[C@@H](O)[C@@H]1O
- Potency [4]: inconclusive: 37.6 µM [activator, partial curve, poor fit]
- Potency [17]: inactive

Structure (SMILES): COC(/C=C(\C)CCC=C(C)C)OC
- Potency [19]: inconclusive: 0.49 µM [activator, single point]

Structure (SMILES): CC(C)CCOC(=O)CC(C)C
- Potency [12]: inactive
- Potency [19]: inconclusive: 54.9 µM [activator, single point]
